Source: patent US20210061872A1 (PROTAGONIST THERAPEUTICS, published 2021)
For some assays here: Part of at least one peptide drawing is inferred or uncertain, most often the ends. Marks after values point to notes of the source that are not given here. For some assays here: At least one compound was matched to its structure with a doubt left.

Key:
[1] = tested on: patients with phlebotomy-dependent PV and splenomegaly; settings: cited from earlier work
[2] = tested on: Cynomolgus monkeys; assay: repeat-dose study, 4 weekly SC doses, limiting erythropoiesis
[3] = tested on: Cynomolgus monkeys; assay: repeat-dose study, 13 weekly SC doses, limiting erythropoiesis; format: in vivo; settings: for Hgb levels reduced by, compared to concurrent controls: females, Day 90
Excerpt: A cohort of animals (4/sex/group) were sacrificed on Day 92 (Main), and the remaining animals (2/sex/group) were sacrificed on Day 120 following a 35-day recovery period (Recovery).

[4] = 1 mg/kg/dose SC weekly x4, Day 7, F
[5] = 1 mg/kg/dose SC weekly x4, Day 7, M
[6] = 1 mg/kg/dose SC weekly x4, Day 29, F
[7] = 1 mg/kg/dose SC weekly x4, Day 29, M
[8] = 3 mg/kg/dose SC weekly x4, Day 7, F
[9] = 3 mg/kg/dose SC weekly x4, Day 7, M
[10] = 3 mg/kg/dose SC weekly x4, Day 29, F
[11] = 3 mg/kg/dose SC weekly x4, Day 29, M
[12] = 10 mg/kg/dose SC weekly x4, Day 7, F
[13] = 10 mg/kg/dose SC weekly x4, Day 7, M
[14] = 10 mg/kg/dose SC weekly x4, Day 29, F
[15] = 10 mg/kg/dose SC weekly x4, Day 29, M
[16] = 0.6 mg/kg/dose SC weekly x13, Day 27, F
[17] = 0.6 mg/kg/dose SC weekly x13, Day 27, M
[18] = 0.6 mg/kg/dose SC weekly x13, Day 55, F
[19] = 0.6 mg/kg/dose SC weekly x13, Day 55, M
[20] = 0.6 mg/kg/dose SC weekly x13, Day 90, F
[21] = 0.6 mg/kg/dose SC weekly x13, Day 90, M
[22] = 0.6 mg/kg/dose SC weekly x13, Day 119 (Recovery), F
[23] = 0.6 mg/kg/dose SC weekly x13, Day 119 (Recovery), M
[24] = 2 mg/kg/dose SC weekly x13, Day 27, F
[25] = 2 mg/kg/dose SC weekly x13, Day 27, M
[26] = 2 mg/kg/dose SC weekly x13, Day 55, F
[27] = 2 mg/kg/dose SC weekly x13, Day 55, M
[28] = 2 mg/kg/dose SC weekly x13, Day 90, F
[29] = 2 mg/kg/dose SC weekly x13, Day 90, M
[30] = 2 mg/kg/dose SC weekly x13, Day 119 (Recovery), F
[31] = 2 mg/kg/dose SC weekly x13, Day 119 (Recovery), M
[32] = 6 mg/kg/dose SC weekly x13, Day 27, F
[33] = 6 mg/kg/dose SC weekly x13, Day 27, M
[34] = 6 mg/kg/dose SC weekly x13, Day 55, F
[35] = 6 mg/kg/dose SC weekly x13, Day 55, M
[36] = 6 mg/kg/dose SC weekly x13, Day 90, F
[37] = 6 mg/kg/dose SC weekly x13, Day 90, M
[38] = 6 mg/kg/dose SC weekly x13, Day 119 (Recovery), F
[39] = 6 mg/kg/dose SC weekly x13, Day 119 (Recovery), M

For `N#CC[C@H](C1CCCC1)n1cc(-c2ncnc3[nH]ccc23)cn1` [ruxolitinib], the “patients who met at least 1 component of the primary end point” value ([1]; at 32 weeks, hematocrit control (<45%) and spleen reduction (≥35%)) is given as 77%, the “patients who achieved the primary end point with confirmed response” value ([1]; at week 48) is given as 91% and the “probability of maintaining a primary response” value ([1]; for 1 year) is given as 94%.

In the case of `CCCCCCCCCCCCCCCC(=O)N[C@@H](CCC(=O)NCCCC[C@@H]1NC(=O)[C@H]([C@@H](C)CC)NC(=O)[C@@H](NC(=O)[C@@H]2CCCN2C(=O)[C@H](Cc2ccccc2)NC(=O)[C@H](Cc2c[nH]cn2)NC(=O)[C@@H](NC(=O)[C@H](CC(=O)O)NC(=O)CC(C)C)[C@@H](C)O)CSSC[C@@H](C(=O)N[C@@H](CCCCN)C(N)=O)NC(=O)CNC(=O)[C@H](CCCCN)NC(=O)[C@H](CO)NC(=O)[C@H](CCCNC(=N)N)NC(=O)[C@@H]2CCCN2C(=O)[C@H](CCC(=O)O)NC(=O)[C@H](Cc2ccccc2)NC1=O)C(=O)O` [Compound A], the “% Hct change from concurrent controls” value [2, 4] is reported as 0%, the “Hgb change from concurrent controls” value [2, 4] is reported as -0.5 g/dL and the “% Hct change from concurrent controls” value [2, 5] is reported as “+2%”. For the same molecule, the “Hgb change from concurrent controls” value [2, 5] was “+0.9 g/dL”, the “% Hct change from concurrent controls” value [2, 6] was 0% and the “Hgb change from concurrent controls” value [2, 6] was -0.8 g/dL. The “% Hct change from concurrent controls” value [2, 7] was 0%, the “Hgb change from concurrent controls” value [2, 7] was -0.1 g/dL and the “% Hct change from concurrent controls” value [2, 8] was −2%. For the same molecule, the “Hgb change from concurrent controls” value [2, 8] was -0.9 g/dL, the “% Hct change from concurrent controls” value [2, 9] was −1% and the “Hgb change from concurrent controls” value [2, 9] was -0.1 g/dL. For the same molecule, the “% Hct change from concurrent controls” value [2, 10] was −5%, the “Hgb change from concurrent controls” value [2, 10] was −2.7** g/dL and the “% Hct change from concurrent controls” value [2, 11] was −6%. The “Hgb change from concurrent controls” value [2, 11] was −2.7** g/dL, the “Hct levels decreased by, in absolute terms” value ([2]; 3 mg/kg/dose male group, Day 29) was 6% and the “% Hct change from concurrent controls” value [2, 12] was −2%. For the same molecule, the “Hgb change from concurrent controls” value [2, 12] was −1.4** g/dL, the “% Hct change from concurrent controls” value [2, 13] was −1% and the “Hgb change from concurrent controls” value [2, 13] was -0.2 g/dL. The “% Hct change from concurrent controls” value [2, 14] was −17*** %, the “Hgb change from concurrent controls” value [2, 14] was −6.5*** g/dL and the “% Hct change from concurrent controls” value [2, 15] was −22*** %. For the same molecule, the “Hgb change from concurrent controls” value [2, 15] was −7.2*** g/dL, the “Hgb change from concurrent controls” value ([2]; 10 mg/kg/dose SC weekly x4, Day 56 (Recovery), M) was “+1.2 g/dL” and the “Hct levels decreased by, in absolute terms” value ([2]; 10 mg/kg/dose male group, Day 29) was 22%. For the same molecule, the reticulocytes ([2]; Day 29) was “statistically significant increases”, the “Hgb levels reduced by, compared to concurrent controls” value ([3]; 0.6 mg/kg) was 1.3 g/dL and the “% Hct change from concurrent controls” value [3, 16] was −4%. For the same molecule, the “Hgb change from concurrent controls” value [3, 16] was -0.9 g/dL, the “% Hct change from concurrent controls” value [3, 17] was −3* % and the “Hgb change from concurrent controls” value [3, 17] was -1.0 g/dL. For the same molecule, the “% Hct change from concurrent controls” value [3, 18] was −3%, the “Hgb change from concurrent controls” value [3, 18] was −1.4* g/dL and the “% Hct change from concurrent controls” value [3, 19] was −3** %. The “Hgb change from concurrent controls” value [3, 19] was −1.0** g/dL, the “% Hct change from concurrent controls” value [3, 20] was −3% and the “Hgb change from concurrent controls” value [3, 20] was −1.3** g/dL. For the same molecule, the “% Hct change from concurrent controls” value [3, 21] was −3%, the “Hgb change from concurrent controls” value [3, 21] was −1.2* g/dL and the “% Hct change from concurrent controls” value [3, 22] was “+2%”. For the same molecule, the “Hgb change from concurrent controls” value [3, 22] was “+0.9 g/dL”, the “% Hct change from concurrent controls” value [3, 23] was “+3%” and the “Hgb change from concurrent controls” value [3, 23] was “+0.7 g/dL”. For the same molecule, the “Hgb levels reduced by, compared to concurrent controls” value ([3]; 2 mg/kg) was 3.0 g/dL, the “% Hct change from concurrent controls” value [3, 24] was −7** % and the “Hgb change from concurrent controls” value [3, 24] was −2.6*** g/dL. The “% Hct change from concurrent controls” value [3, 25] was −5*** %, the “Hgb change from concurrent controls” value [3, 25] was −1.3*** g/dL and the “% Hct change from concurrent controls” value [3, 26] was −7*** %. For the same molecule, the “Hgb change from concurrent controls” value [3, 26] was −3.5*** g/dL, the “% Hct change from concurrent controls” value [3, 27] was −7*** % and the “Hgb change from concurrent controls” value [3, 27] was −3.0*** g/dL. For the same molecule, the “% Hct change from concurrent controls” value [3, 28] was −7*** %, the “Hgb change from concurrent controls” value [3, 28] was −3.0*** g/dL and the “% Hct change from concurrent controls” value [3, 29] was −4** %. The “Hgb change from concurrent controls” value [3, 29] was −2.4*** g/dL, the “% Hct change from concurrent controls” value [3, 30] was “+4%” and the “Hgb change from concurrent controls” value [3, 30] was “+1.3 g/dL”. The “% Hct change from concurrent controls” value [3, 31] was “+4%”, the “Hgb change from concurrent controls” value [3, 31] was “+1.1 g/dL” and the “Hgb levels reduced by, compared to concurrent controls” value ([3]; 6 mg/kg) was 5.6 g/dL. The “% Hct change from concurrent controls” value [3, 32] was −16*** %, the “Hgb change from concurrent controls” value [3, 32] was −5.7*** g/dL and the “% Hct change from concurrent controls” value [3, 33] was −17*** %. The “Hgb change from concurrent controls” value [3, 33] was −5.9*** g/dL, the “% Hct change from concurrent controls” value [3, 34] was −13*** % and the “Hgb change from concurrent controls” value [3, 34] was −5.6*** g/dL. For the same molecule, the “% Hct change from concurrent controls” value [3, 35] was −21*** %, the “Hgb change from concurrent controls” value [3, 35] was −7.2*** g/dL and the “% Hct change from concurrent controls” value [3, 36] was −14*** %. The “Hgb change from concurrent controls” value [3, 36] was −5.6*** g/dL, the “% Hct change from concurrent controls” value [3, 37] was −17*** % and the “Hgb change from concurrent controls” value [3, 37] was −6.2*** g/dL. The “% Hct change from concurrent controls” value [3, 38] was “+6%”, the “Hgb change from concurrent controls” value [3, 38] was “+1.6 g/dL” and the “% Hct change from concurrent controls” value [3, 39] was “+4%”. The “Hgb change from concurrent controls” value [3, 39] was “+0.9 g/dL” and the “RBC parameters (RBC counts, Hgb, and Hct)” value ([3]; 0.6, 2, 6 mg/kg/dose) was “dose-dependent decreases in RBC parameters”.
